According to the supplement of paper PMC3334620:
In all, about 33,000 sequences were measured (“E-score (-0.5 to 0.5)”: median about -0.012, highest 2% from about 0.29 on). The list shows a part of the results.

biological target: T1, Ybr033w (UniProt P38073); experiment: PBM E-score (8-mer binding enrichment) (E-score (-0.5 to 0.5)); higher = stronger / more preferred TF binding; most listed sequences are background and not binding sites; conditions: protein concentration: 200 nM; construct: GST-full length
T1 sequence: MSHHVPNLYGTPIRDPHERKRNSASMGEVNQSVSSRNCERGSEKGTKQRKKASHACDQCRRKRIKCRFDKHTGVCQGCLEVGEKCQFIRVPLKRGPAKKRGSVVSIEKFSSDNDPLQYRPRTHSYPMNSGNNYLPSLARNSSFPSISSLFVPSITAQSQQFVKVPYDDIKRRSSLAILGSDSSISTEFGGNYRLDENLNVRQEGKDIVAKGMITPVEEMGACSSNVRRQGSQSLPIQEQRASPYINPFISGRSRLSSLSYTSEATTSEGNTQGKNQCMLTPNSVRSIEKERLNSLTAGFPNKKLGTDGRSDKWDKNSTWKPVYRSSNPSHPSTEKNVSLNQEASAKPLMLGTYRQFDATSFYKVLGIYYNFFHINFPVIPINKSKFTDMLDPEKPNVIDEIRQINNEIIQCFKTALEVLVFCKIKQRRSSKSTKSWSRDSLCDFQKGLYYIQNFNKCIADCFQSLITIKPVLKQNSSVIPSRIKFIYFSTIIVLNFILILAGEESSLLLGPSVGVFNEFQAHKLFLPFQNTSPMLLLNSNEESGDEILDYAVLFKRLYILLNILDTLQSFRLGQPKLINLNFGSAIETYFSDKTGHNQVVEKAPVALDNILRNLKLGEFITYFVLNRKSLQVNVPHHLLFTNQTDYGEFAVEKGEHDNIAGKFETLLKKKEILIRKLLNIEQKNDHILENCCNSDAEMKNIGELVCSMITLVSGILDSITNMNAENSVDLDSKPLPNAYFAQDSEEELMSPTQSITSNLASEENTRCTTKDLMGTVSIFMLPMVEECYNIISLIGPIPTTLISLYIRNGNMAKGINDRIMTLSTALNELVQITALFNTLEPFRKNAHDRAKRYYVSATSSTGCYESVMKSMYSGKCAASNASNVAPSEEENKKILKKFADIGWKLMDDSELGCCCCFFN
Description: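 Universal 'all 10-mer' protein binding microarrays (Agilent AMADID 015681) probed with GST-tagged S. cerevisiae TFs (full-length or DBD) made by in vitro transcription/translation (PURExpress), about 100-200 nM. Bound TF was detected with fluorescent anti-GST. Each ungapped 8-mer (which stands for itself and its reverse complement) is scored by the PBM enrichment score (E-score), a modified Wilcoxon-Mann-Whitney statistic from -0.5 to +0.5, computed with the Universal PBM Analysis Suite. Scale: above 0.35 generally sequence-specific binding.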

Point of comparison: GCGTCTAC, “PBM E-score” value -0.255. Against it:
- CCTTACCC — higher, -0.172
- AATACCCT — higher, 0.0217
- CATACGAG — higher, 0.0952
- CTTCTATA — higher, 0.166
- GCGCAGGA — higher, -0.0732
- TCAGCTCA — higher, -0.0122
- CTGTTCAC — higher, -0.103
- CATCAATG — higher, 0.00414
- CACTGACA — higher, -0.144
- AAAGTCTG — higher, 0.0631
- CTCCGGTA — higher, -0.029
- ACACCTGA — higher, -0.0619
- ACAGGCAG — higher, -0.0237
- AAGGAATC — higher, 0.0309
- GTTAGCGA — higher, 0.202
- ATGCTTCC — higher, -0.0289
- ATTACCCG — higher, -0.0141
- CTCCGCTC — higher, -0.0252
- ACACGGCA — higher, -0.162
- CCGGTGGC — higher, -0.245
- AAGACGGT — higher, -0.237
- AGCCTCAA — higher, -0.00582
- GCCTTCTA — higher, -0.0832
- ACCTTATC — higher, 0.0619
- CCCACCCG — higher, 0.0327
- AACTTCGT — higher, 0.167
- ACCCAATG — higher, -0.0343
- ACGGCATC — higher, -0.18
- ATGTACTC — higher, 0.102
- GTTTTTGA — higher, 0.225
- GTTGTGCA — higher, -0.122
- GCGGACTA — higher, -0.0323
- CGAATTAG — higher, 0.0793
- GGGTATAC — higher, -0.0522
- CACCTTCG — higher, -0.0183
- TCGCTGAA — higher, 0.0818
- CGCACCAC — higher, -0.0233
- CTACTTCA — higher, 0.0359
- AACGTGCG — higher, -0.105
- ATAAGTGG — higher, 0.224
- AGGCAACA — higher, -0.0891
- TCGCACAA — higher, 0.0552
- AGGCGGAA — higher, 0.237
- GGGCGGTA — lower, -0.279
- ATGTAGGC — higher, -0.105
- ATACATTG — higher, 0.124
- CCTCTACG — higher, -0.183
- GCAGATCA — higher, -0.115
- AATTACAC — higher, 0.0688
- ATCGTATA — higher, 0.133
- CAAGTGCA — higher, -0.0375
- AAACCAAC — higher, 0.173
- ATTATAGG — higher, 0.186
- ATGGCGGC — higher, -0.137
- ACTGACCA — higher, -0.132
- CAATAAGG — higher, -0.0724
- AAACCTAT — higher, 0.163
- GCAATTAC — higher, -0.0405
- TAATCAAA — higher, 0.258
- ACACCAAT — higher, 0.0734
- CCTCCGGC — higher, -0.17
- ACCAGGAT — higher, 0.195
- TCCTGACA — higher, 0.0189
- CTATATGA — higher, 0.209
- GGTTGAGA — higher, 0.00808
- TAAAAAAA — higher, 0.241
- ACTGTACA — higher, -0.0895
- AGCGTGTC — higher, -0.17
- CACGCCGC — higher, -0.185
- CGCCGACA — higher, -0.209
- ACTTCTAC — higher, 0.0557
- TATCTGGA — higher, 0.0261
- CGGTGTGC — higher, -0.216
- ACGGCTTG — higher, -0.0473
- ATTCCTAG — higher, 0.147
- CTATATAA — higher, 0.152
- CAGCCAAC — higher, -0.0719
- CGGACCCA — higher, -0.204
- AGCGGTAT — higher, -0.00079
- CAGAACTG — higher, 0.178
- AATATTCT — higher, 0.248
- AACGTGAG — higher, -0.0277
- AAGGCAGG — higher, -0.196
- GTGCATCA — higher, 0.0839
- GGCAGCTA — higher, 0.0745
- AGAGCGTC — higher, -0.081
- AGGTCAAT — higher, -0.0294
- ATTCAGGC — higher, -0.0158
- CCAACCCA — higher, -0.186
- ACGACCAT — higher, -0.108
- CCACGGTC — lower, -0.326
- GGCGCTAC — lower, -0.317
- AAAGGCGA — higher, -0.0919
- CGGATCGA — higher, -0.0379
- ACACGGTG — higher, 0.00661
- ATCTAGGA — higher, 0.084
- ATGATAAG — higher, 0.0206
- AATAAGGT — higher, -0.126
- ACAAGCGT — higher, 0.0181
- ATCTTTAG — higher, -0.0104
- ACAGCGAT — higher, -0.0984
- CGATGACC — higher, -0.0825
- CGTCCTGC — higher, -0.157
- CCGATGAC — higher, -0.126
- AGTCGCGC — higher, 0.101
- CCACTCGG — higher, -0.12
- TATACGCA — higher, 0.162
- CAAACAGA — higher, 0.153
- ATTCCGCC — higher, 0.249
- CGGCTCCA — higher, -0.152
- ACCAATTC — higher, 0.0525
- CCAGTGCG — higher, -0.207
- CATGTTGC — higher, 0.0319
- GCATTCCA — higher, -0.0744
- AAAACTAA — higher, 0.328
- ATGGTGAA — higher, 0.0422
- CTGATGCA — higher, 0.0386
- ATGAATCC — higher, 0.036
- AATATCGA — higher, 0.164
- CGCATCCC — higher, -0.239
- CTCATATA — higher, 0.0769
- GTTAAGTA — higher, 0.113
- AAACTATT — higher, 0.189
- GATCCGGC — higher, -0.0438
- CGCCGGTA — higher, -0.129
- ACGGGCCT — higher, -0.233
- CACGGGAG — lower, -0.33
- CAGCCGAA — higher, -0.0479
- CGCGAAAC — higher, -0.0228
- CGTACGTA — higher, -0.0378
- AGCGCAGA — higher, -0.0391
- CATCAATA — higher, 0.201
- CGAAACCA — higher, 0.133
- ACCGATAT — higher, 0.14
- AACATTAC — higher, 0.176
- ACAAACGC — higher, 0.0702
- CAATAGGA — higher, -0.0861
- CGAACCCG — higher, -0.229
- ACGCCGAA — higher, -0.154
- ACTAGGGA — higher, -0.159
- ACTACCAT — higher, 0.0768
- AGATGGGC — higher, -0.0391
- TAGTAATA — higher, 0.241
- AAGCTTAT — higher, 0.143
- CCATTCGG — higher, -0.0494
- AAGAGACT — higher, -0.0144
- AACAACAC — higher, 0.0909
- AGATATCT — higher, -0.0256
- CTCGGTAA — higher, 0.029
- ACCCGTAT — higher, -0.0227
- AGATTCTA — higher, 0.106
- CACGAATA — higher, 0.135
- CAAAGTAC — higher, 0.074
- AATTAAAC — higher, 0.377
- GCAAGGAA — higher, 0.104
- AGGCTTAG — higher, 0.0242
- GCAGGAGA — higher, -0.00164
- ACCACTTA — higher, -0.0282
- CAGGTCGG — higher, -0.175
- CTTATTGA — higher, 0.201
- GACCCAGC — lower, -0.381
- CTATCCGC — higher, 0.00507
- ATACTACG — higher, 0.0364
- AGCGGGCG — higher, -0.206
- CAGCCATC — higher, -0.166
- ATCACAAA — higher, 0.189
- GCCAGGGA — lower, -0.313
- CTCAGAAC — higher, 0.027
- AGTCCTTA — higher, -0.049
- CCGTTAAA — higher, 0.182
- CACAGCCG — higher, -0.0957
